Among all 310,000 compounds or so, about 2,200 (0.71%) showed an effect of 50% or more. Effects have a minus sign here. The list shows a part of the results.
Biological target: human ether-à-go-go-related gene (hERG) potassium channel (human, UniProt Q12809)
Experiment: primary screen, population patch clamp on CHO cells stably expressing hERG

Sequence of human ether-à-go-go-related gene (hERG) potassium channel (Q12809 whole entry, looked up): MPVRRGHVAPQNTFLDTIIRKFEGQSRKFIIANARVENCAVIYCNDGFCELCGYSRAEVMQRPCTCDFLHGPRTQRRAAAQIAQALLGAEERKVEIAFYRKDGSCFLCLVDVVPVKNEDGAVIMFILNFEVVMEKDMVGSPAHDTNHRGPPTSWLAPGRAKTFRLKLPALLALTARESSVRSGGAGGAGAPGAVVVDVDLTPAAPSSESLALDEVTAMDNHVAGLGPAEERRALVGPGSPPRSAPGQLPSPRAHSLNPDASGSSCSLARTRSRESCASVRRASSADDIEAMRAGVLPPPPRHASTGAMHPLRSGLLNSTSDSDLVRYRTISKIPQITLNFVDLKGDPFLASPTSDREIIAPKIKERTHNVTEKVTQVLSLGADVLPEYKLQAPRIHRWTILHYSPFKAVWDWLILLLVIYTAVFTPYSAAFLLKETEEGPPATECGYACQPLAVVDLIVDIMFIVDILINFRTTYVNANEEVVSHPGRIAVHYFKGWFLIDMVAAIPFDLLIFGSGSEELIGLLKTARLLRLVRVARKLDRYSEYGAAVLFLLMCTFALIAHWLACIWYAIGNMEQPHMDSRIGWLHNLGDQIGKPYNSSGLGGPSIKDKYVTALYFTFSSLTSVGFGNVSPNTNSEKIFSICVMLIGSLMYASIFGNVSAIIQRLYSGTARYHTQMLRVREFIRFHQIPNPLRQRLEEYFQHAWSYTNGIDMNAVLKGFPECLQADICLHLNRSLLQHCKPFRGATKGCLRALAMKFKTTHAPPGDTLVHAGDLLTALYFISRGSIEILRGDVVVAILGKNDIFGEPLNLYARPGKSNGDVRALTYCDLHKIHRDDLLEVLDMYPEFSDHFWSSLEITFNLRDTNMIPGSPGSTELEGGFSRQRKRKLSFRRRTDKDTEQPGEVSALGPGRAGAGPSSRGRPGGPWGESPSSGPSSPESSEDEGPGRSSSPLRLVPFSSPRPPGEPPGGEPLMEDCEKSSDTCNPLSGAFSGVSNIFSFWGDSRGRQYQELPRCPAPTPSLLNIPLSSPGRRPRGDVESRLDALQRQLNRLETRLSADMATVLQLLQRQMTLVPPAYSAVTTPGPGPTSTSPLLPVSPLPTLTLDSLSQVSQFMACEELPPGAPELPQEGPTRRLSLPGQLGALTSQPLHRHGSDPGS

| SMILES | hERG current change (%, negative = inhibition) at 1uM [%] |
| --- | --- |
| CCOc1ccc(S(=O)(=O)Nc2cc(SCC(=O)O)c(O)c3ccccc23)cc1 | 6.39 |
| Cc1sc2nc(SCC(=O)Nc3ccc(S(=O)(=O)NCCCC(=O)O)cc3)[nH]c(=O)c2c1C | 13.5 |
| O=C(CSc1nnnn1-c1ccc(O)cc1)NC1CCCCC1 | 10.4 |
| Cc1noc(C)c1S(=O)(=O)N1CCC(C(=O)N2CCN(C(=O)c3ccco3)CC2)CC1 | 14.2 |
| COC(=O)C[C@H]1c2ccccc2S(=O)(=O)N1Cc1ccc(OC)cc1 | 14 |
| CCC(C(=O)Nc1ccccc1F)n1nc(C)c2c(C)n(-c3ccccc3)nc2c1=O (centres unmarked) | 30.3 |
| CCOc1ccc2nc(NCCNC(=O)C(C)(C)C)c(C)cc2c1 | -2.85 |
| COCCNC(=S)N/N=C/c1ccc(-c2ccc([N+](=O)[O-])cc2)o1 | 13.9 |
| CCCn1ncc(CN2CCCC(C(=O)c3cccc(OC(C)C)c3)C2)c1C (centres unmarked) | -14.6 |
| CCOc1ccc(NC(=O)CC2C(=O)N(CC)C(=S)N2NC(=O)c2ccncc2)cc1 (centres unmarked) | 14.2 |
| COc1ccc(Cl)cc1S(=O)(=O)N1CCN=C1Cc1ccccc1 | 6.33 |
| CN(C)CCCNc1oc(-c2ccccc2)nc1C#N | 10.6 |
| CCN(CC)CCN(Cc1cc2cc3c(cc2[nH]c1=O)OCCO3)C(=S)NCC(C)C | 9.1 |
| CCN1CCN(c2cc(C)c3cc(NC(=O)c4ccc(Br)o4)ccc3n2)CC1 | -1.36 |
| COc1ccc(CNCc2ccc(C)cc2)c(OC)c1.O=C(O)C(=O)O | 6.06 |
| CC(C)(C)Nc1nc(OCC(F)(F)F)nc(OCC(F)(F)F)n1 | -0.747 |
| Cc1ccc(NC(=O)CN2CCc3cc4c(cc3C2)OCCCO4)cc1C | 12.1 |
| O=C(Nc1ccc2c(c1)OCO2)c1c[nH]c(=O)n(-c2ccc(F)cc2)c1=O | 19.9 |
| CCOC(=O)/C(=C/c1ccc(F)cc1)NC(C)=O | 2.01 |

| SMILES | hERG current change (%, negative = inhibition) at 1uM [%] |
| --- | --- |
| O=C(NC1CCCCC1)C1CC(=O)N(CCc2ccc(F)cc2)C1 (centres unmarked) | 3.87 |
| C=CCn1c(=S)[nH]c2ccc(Br)cc2c1=O | 5.42 |
| CCCn1c2ccccc2c2nnc(SCC(=O)Nc3ncccn3)nc21 | -4.22 |
| CN(C)C(=O)Oc1ccc(NC(=O)N2CCOCC2)cc1 | 13.8 |
| c1ccc(NCCCNc2ccccc2)cc1 | 11.5 |
| CCn1c(CC(=O)Nc2ccccc2F)nnc1SCC(=O)N1CCN(c2ccccc2)CC1 | 10.1 |
| Fc1cccc(Cn2ccc(-c3ccc4c(c3)OCO4)n2)c1 | 8.45 |
| NS(=O)(=O)c1ccc(CCNC(=O)C2CC(=O)N(Cc3ccccc3Cl)C2)cc1 (centres unmarked) | 5.89 |
| CC/C(=N\NC(=O)c1cc(C)nc2ccccc12)c1ccc(C)s1 | -2.73 |
| COC(=O)c1ccc(N2C(=O)CC(Sc3n[nH]c(C)n3)C2=O)cc1 (centres unmarked) | -0.0585 |
| CCC/C=N/O | 12.4 |
| Cc1ccc2ncnc(NCCCCCC(=O)O)c2c1.Cl | 19.2 |
| COc1ccc2[nH]c(C(=O)N(C)Cc3ccccc3)c(C)c2c1 | 14.1 |
| Cc1ccsc1-c1cc(C(=O)O)c2c(ccc3ccccc32)n1 | 14.2 |
| O=C(C(=O)N1CCOCC1)c1cn(CCOc2ccccc2)c2ccccc12 | -0.524 |
| Cc1cc(C)c2cc(CN(CCCN(C)C)C(=S)NCc3ccccc3)c(=O)[nH]c2c1 | -0.759 |
| O=C(NCc1ccccn1)c1ccc2nc(-c3ccco3)c(-c3ccco3)nc2c1 | 16.6 |
| COc1cccc2sc(NNC(=O)COc3ccccc3)nc12 | 9.35 |
| Cc1oc2ccc(OC(=O)COc3c(F)c(F)c(F)c(F)c3F)cc2c1C(=O)OC(C)C | 5.43 |

| SMILES | hERG current change (%, negative = inhibition) at 1uM [%] |
| --- | --- |
| Cc1cccc(-n2c(-c3ccco3)nc3ccccc3c2=O)c1C | 10.9 |
| CC1(C)CCCC2=C1CC1C(=O)N(Cc3cccnc3)C(=O)C1C2 (centres unmarked) | 3.04 |
| Cc1cc(=O)n2nc(N3CCC(C(=O)NCc4ccco4)CC3)sc2n1 | 24.7 |
| CCC(=S)/C=C1\Sc2ccc3ccccc3c2N1CCCS(=O)(=O)[O-].[Na+] | 11.1 |
| COc1cccc(-n2nnc3c(=O)n(Cc4ccccc4F)cnc32)c1 | 0.239 |
| CCCCNC(=S)N(CCO)Cc1cc2cc3c(cc2[nH]c1=O)OCCO3 | 5.16 |
| CSc1nc(Oc2ccc(Cl)cc2)c2sccc2n1 | 1.41 |
| COc1ccc(CCNC(=O)c2[nH]c(C)c(C(C)=O)c2C)cc1OC | 8.6 |
| CCC1(c2ccccc2)NC(=O)N(CC(=O)Nc2ccc(S(=O)(=O)NC3=NCCCCC3)cc2)C1=O (centres unmarked) | 16.7 |
| COC(=O)CSc1nc2ccc(NC(C)=O)cc2s1 | 13 |
| COc1ccccc1-n1c(SCC(=O)Nc2ccc(F)cc2)nc2c(c1=O)SCC2 | 7.97 |
| Cc1ccc(C(=O)Nc2ccc(Cc3ccncc3)cc2)cc1[N+](=O)[O-] | -6.53 |
| Cc1ccc2[nH]c(=O)c(CN(CCCN(C)C)C(=S)NCCc3ccccc3)cc2c1 | 4.08 |
| CCOC(C[n+]1c(-c2ccccc2)cc(C)cc1-c1ccccc1)OCC.[O-][Cl+3]([O-])([O-])[O-] | 15.2 |
| OCCCNc1nc(-c2ccc(Cl)cc2)nnc1-c1ccc(Br)cc1 | 7.33 |
| CCOP(=O)(OCC)C(NC(=O)c1ccc(C)cc1)C(Cl)(Cl)Cl (centres unmarked) | 13.5 |
| Cc1cc(C)c(S(=O)(=O)Nc2cccc(/C=C/C(=O)O)c2)c(C)c1 | 10.3 |
| O=c1c2cccnc2[nH]c(=S)n1Cc1ccccc1 | 17.7 |
